# Test results published in PubChem BioAssay AID485344 (National Center for Advancing Translational Sciences (NCATS), 2010).
# About 6,900 (2%) of roughly 340,000 compounds were called active. Rule as the data show it: active = inhibition above about 30%; inactive = below that, where a call was filed. The list shows a part of the results, in another mix than the full data. The source gives no active or inactive call for entries shown without one.
# Biological target: D(2) dopamine receptor (Homo sapiens) (UniProt P14416)
# Assay: HTS Assay for Allosteric Antagonists of the Human D2 Dopamine Receptor: Primary Screen for Antagonists; also: 0% is about no effect
# Conditions: HEK293 TREx D2 cells, calcium flux, dopamine EC80; at 10 µM; stronger effect = higher value
# Summary of the method: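 Tetracycline-induced HEK293 TREx cells expressing D2 receptor forced-coupled to calcium signalling, loaded with no-wash calcium dye. Compounds added and calcium flux read 180 s, then dopamine added at EC80 and read a further 180 s.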
# Chain of UniProt P14416 (P14416 whole entry, looked up): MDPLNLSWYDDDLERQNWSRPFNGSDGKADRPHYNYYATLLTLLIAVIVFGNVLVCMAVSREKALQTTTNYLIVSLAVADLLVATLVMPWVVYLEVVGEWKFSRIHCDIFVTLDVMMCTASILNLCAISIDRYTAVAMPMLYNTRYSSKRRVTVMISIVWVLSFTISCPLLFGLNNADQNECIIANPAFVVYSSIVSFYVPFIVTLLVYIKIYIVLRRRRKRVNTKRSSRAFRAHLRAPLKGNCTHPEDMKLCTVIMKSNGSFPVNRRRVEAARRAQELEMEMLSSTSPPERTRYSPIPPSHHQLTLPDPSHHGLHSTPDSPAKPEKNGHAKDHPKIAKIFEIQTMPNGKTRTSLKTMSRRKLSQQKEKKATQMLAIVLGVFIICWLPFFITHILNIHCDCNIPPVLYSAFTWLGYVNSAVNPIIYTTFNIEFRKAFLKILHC
row,Compound,inhibition
1,Cc1cccc(CCNC(=O)c2ccc3c(c2)nc2n3CCOC2)c1,-13%
2,CCOC(=O)c1ccc(Nc2nc(N)c3cc(OC)c(OC)cc3n2)cc1,8.49%
3,COC(=O)c1ccc(NC(=O)c2cc(S(=O)(=O)N3CCC(C)CC3)cn2C)cc1,23%
4,Cc1ccc(C(=O)C2CCN(CC(=O)N3CCN(c4ccc(F)cc4)CC3)CC2)cc1,active: 51.2%
5,Cc1oc2ncnc(N3CCCCC3)c2c1C(=O)Nc1cccc(Cl)c1C,-1.26%
6,CCC1CCCCN1S(=O)(=O)c1ccc(NC(=O)c2nc(SC)ncc2Cl)cc1 (configuration not stated),-8.34%
7,N#C/C(=C/c1ccc(N2CCCCC2)o1)C(=O)Nc1ccc(Cl)cc1,active: 61.9%
8,Cn1c2c(c(=O)n(C)c1=O)C(c1cc(Br)ccc1F)CC(=O)N2 (configuration not stated),4.52%
9,Cc1nc2cc(-c3ccccc3)nn2c(C)c1CCC(=O)NCCc1ccccc1,8.9%
10,Cc1ccc(C(=O)N2c3ncnn3C3(CCCCC3)[C@@H]3CCCC[C@@H]32)cc1,14.5%
11,COc1ccc(OC)c(CNC(=O)CCc2c(C)nc3c(c2C)c(=O)n(C)c(=O)n3C)c1,-5.3%
12,Cc1ccc2oc(=O)c(-c3nc4ccc(C)cc4[nH]3)cc2c1,9.5%
13,CCCOc1ccc(CNC(=O)C(C)n2nc(C)n3c(cc4occc43)c2=O)cc1 (configuration not stated),0.866%
14,COc1ccc(Cl)cc1NC(=O)CSc1nnc(C)n2c1cc1sccc12,12.2%
15,COc1ccc(NC(=O)C2CC(=O)N(Cc3ccc(C)cc3)C2)cc1S(=O)(=O)N1CCCCC1 (configuration not stated),active: 42.7%
16,Cc1c(Cl)cccc1-n1c(SCC(=O)NCc2ccccc2)nc2n[nH]c(C)c2c1=N,-10.4%
17,COc1ccc(NC(=O)CC2C(=O)N(c3ccc(OC)cc3)C(=O)N2C2CCCCC2)cc1 (configuration not stated),5.81%
18,Cc1ccc(Nc2cc(=O)[nH]c(=O)[nH]2)cc1C,-2.34%
19,COc1cccc(C(=O)N2CC(=O)Nc3ccc(C)cc3C2c2ccc(F)cc2)c1OC (configuration not stated),-7.29%
20,CCOc1cc2sc(N3CCC(C(=O)Nc4ccc(C(C)C)cc4)CC3)nc2cc1Br,12.3%
21,CCOc1ccc(NC(=O)CN(c2ccccc2OCC)S(=O)(=O)c2ccccc2)cc1,-1.29%
22,Cc1cc(Cl)ccc1NS(=O)(=O)c1ccc2c(c1)CCN2S(C)(=O)=O,15.1%
23,Cc1cc(=O)n(Cc2cccc(Br)c2)c2c1c(C)nn2-c1ccccc1,2.02%
24,Cc1cccc(CNC(=O)Cc2csc3ccccc23)c1,-11.5%
25,CC1CCCCN1S(=O)(=O)c1ccc(F)c(C(=O)Nc2ccccc2C(F)(F)F)c1 (configuration not stated),18.4%
26,CCOC(=O)C1CCN(c2cc3c(cc2NC(=O)c2ccc(OC)c(OC)c2)n(C)c(=O)n3C)CC1,1.27%
27,CCC(C)NC(=O)Cn1c(=O)n(CCCC(=O)NCc2ccc(C)cc2)c(=O)c2ccccc21 (configuration not stated),12.6%
